Source: PubChem BioAssay AID485294 (National Center for Advancing Translational Sciences (NCATS), 2010)
The whole screen tested about 370,000 compounds, of which about 150 (0.041%) were called active. The shares of active, inactive and inconclusive entries below differ from those in the screen. The call rests on the fitted dose curve; in most records, active means well fitted inhibition curve with a large enough effect; inconclusive means small, poorly fitted or top-dose-only effect; inactive means flat fitted curve, though single readings scatter. Potencies of inconclusive entries are left out as doubtful fits.

Each compound was assayed against Beta-lactamase (Escherichia coli (strain K12)) (UniProt P00811) (assay: qHTS Inhibitors of AmpC Beta-Lactamase (assay with detergent)). Conditions: AmpC hydrolysis of nitrocefin, absorbance 480 nm, 0.01% Triton; activity change, negative = inhibition: at 114 µM (top of the series).
Outline: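 AmpC (5.3 nM in the dispensed reagent) in 20 mM phosphate pH 7.0 with 0.01% (detergent screen) or 0.0001% Triton X-100 was preincubated with compounds for 15 min at room temperature. Nitrocefin was then added from an 800 uM solution, and hydrolysis was followed at 480 nm.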
Further: nearly all actives have a fitted effect of over 25% in size.
Potency means the concentration at half of the fitted maximal effect; tags describe the fitted curve by direction and shape.
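Wherever activity change, negative = inhibition is given: 0% = no-compound wells and -100% = no-enzyme wells.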

Chain of UniProt P00811 (P00811 whole entry, looked up): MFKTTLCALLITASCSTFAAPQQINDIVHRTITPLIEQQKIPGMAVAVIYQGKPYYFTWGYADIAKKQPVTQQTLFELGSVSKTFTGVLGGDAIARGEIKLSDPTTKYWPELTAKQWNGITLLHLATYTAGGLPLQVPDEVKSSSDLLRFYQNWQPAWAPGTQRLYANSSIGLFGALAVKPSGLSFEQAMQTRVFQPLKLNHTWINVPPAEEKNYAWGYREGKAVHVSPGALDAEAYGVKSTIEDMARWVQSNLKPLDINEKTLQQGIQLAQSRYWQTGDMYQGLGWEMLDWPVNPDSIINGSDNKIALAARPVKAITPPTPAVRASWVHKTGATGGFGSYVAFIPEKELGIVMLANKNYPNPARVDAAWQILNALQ

| SMILES | Potency | activity change, negative = inhibition |
| --- | --- | --- |
| COc1ccc(-c2c(NC(=O)c3ccco3)oc3ccccc3c2=O)cc1OC | inconclusive [inhibitor, full curve, poor fit] |  |
| CC1CCC(C(C)C)C(OP(=O)(c2ccccc2)C(O)c2ccncc2)C1 (centres undefined) | inconclusive [inhibitor, single point] |  |
| Cc1cc(C)cc(NC(=O)Cn2c(C(F)(F)F)nc3ccccc32)c1 |  | inactive: 3.17% |
| O=c1cc(CO)occ1OCc1c(F)cccc1Cl | inconclusive [inhibitor, single point] |  |
| CCOc1ccc(OCC)c(NC(=O)Nc2ccc3c(c2)N(C)C(=O)CS3)c1 | inconclusive [inhibitor, full curve] |  |
| Cc1ccc(S(=O)(=O)N2CCOCC2)cc1C(=O)Nc1nc(-c2cccnc2)cs1 |  | inactive: 0.0569% |
| CCOC(=O)N1CCN(CCC(=O)Nc2ccc(F)c(F)c2)CC1 | inconclusive [inhibitor, full curve, poor fit] |  |
| COc1ccc2[nH]c3nc(SCC(=O)NNC(=O)c4ccc(OC)c(OC)c4)nnc3c2c1 | inconclusive [inhibitor, full curve, poor fit] |  |
| CC(=O)N1CCc2cc(S(=O)(=O)Nc3ccccc3N3CCN(C)CC3)ccc21 | inconclusive [inhibitor, full curve, poor fit] |  |
| CS(=O)(=O)N1CCC(C(=O)c2cccc(Cl)c2)CC1 | inconclusive [inhibitor, full curve] |  |
| NC(=O)C1CCCN(C(=O)c2ccc3oc(Cc4ccc(Cl)cc4)nc3c2)C1 (centres undefined) |  | inactive: 3.86% |
| Cc1cc(NC(=O)c2cc(-c3cccs3)nc3ccccc23)no1 | inconclusive [inhibitor, partial curve] |  |
| CCCc1ccc(/C=C2\C(=O)c3ccccc3C(O)=C2C(=O)OCC)cc1 | inconclusive [inhibitor, full curve] |  |
| CC1C(=O)N2CCCc3cc(NC(=O)COc4ccc(Cl)cc4)cc1c32 (centres undefined) | inconclusive [inhibitor, full curve, poor fit] |  |
| CCSc1nnc(NC(=O)C2Cc3ccccc3CN2C(=O)c2ccco2)s1 (centres undefined) | inconclusive [inhibitor, single point] |  |
| CC(C)CN(C(=O)COC(=O)C12CC3CC(CC(Cl)(C3)C1)C2)c1c(N)n(Cc2ccccc2)c(=O)[nH]c1=O | inconclusive [inhibitor, single point] |  |
| Cc1ccccc1NC(=O)Cc1nc(CCl)cs1 | inconclusive [inhibitor, partial curve, poor fit] |  |
| COC(=O)N[C@H](CC(C)=O)c1ccccc1 | inconclusive [inhibitor, full curve, poor fit] |  |
| Cc1ccc(C(C)CCN2CCC(n3nccc3NC(=O)c3ccccc3)CC2)o1 (centres undefined) | inconclusive [inhibitor, partial curve, poor fit] |  |
| COc1ccc(OCCCC(=O)NNC(=O)c2ccncc2)cc1 | inconclusive [inhibitor, full curve, poor fit] |  |

| SMILES | Potency | activity change, negative = inhibition |
| --- | --- | --- |
| CC(=O)c1cccc(N2C(=O)CC(N3CCN(S(=O)(=O)c4ccc(Cl)cc4)CC3)C2=O)c1 (centres undefined) | inconclusive [inhibitor, partial curve, poor fit] |  |
| C=CCN(C(=O)c1ccc(Cl)cc1)c1ccccc1C(=O)NCC(=O)O |  | inactive: 0.799% |
| COc1ccccc1C(=O)NC(=O)Cn1nc(C)c([N+](=O)[O-])c1C | inconclusive [inhibitor, partial curve] |  |
| COC(=O)Cn1c(CN2CCc3ccccc3C2)nc2c1c(=O)n(C)c(=O)n2C | inconclusive [inhibitor, full curve] |  |
| CCN(CC)c1ccc(/C=N/NC(=O)Nc2nonc2N)cc1 | inconclusive [inhibitor, partial curve] |  |
| CC(NC(=O)c1ccc(F)cc1Cl)C1CC2CCC1C2 (centres undefined) |  | inactive: -7.3% |
| CS(=O)(=O)c1nc(-c2ccccc2)cc(C(F)(F)F)n1 | inconclusive [inhibitor, partial curve] |  |
| COc1ccc(CCN(C)C(=O)CSc2ncnc3sccc23)cc1OC | inconclusive [inhibitor, full curve, poor fit] |  |
| COc1cc(CNC2CCCCCC2)cc(OC)c1 | inconclusive [inhibitor, full curve, poor fit] |  |
| CC(=O)c1c(C)[nH]c(C(=O)COc2ccc3ccc(=O)oc3c2)c1C | inconclusive [inhibitor, full curve, poor fit] |  |
| C=CCOC(=O)C1=C(C)NC(C)=C(C(=O)OCC=C)C1c1cn(-c2ccccc2)nc1-c1ccco1 | inconclusive [inhibitor, full curve] |  |
| CCNC(=O)COc1cc(C)c(Cl)c(C)c1 | inconclusive [inhibitor, partial curve, poor fit] |  |
| CCc1nn(CC(=O)N2CCC3(CC2)OCCO3)c(=O)c2cc3ccccc3n12 | inconclusive [inhibitor, full curve, poor fit] |  |
| Cc1ccc(C(=O)Nc2cccc(NC(=O)c3ccc(C)o3)n2)o1 | inconclusive [inhibitor, full curve, poor fit] |  |
| CC1CCN(c2c(NCc3ccc(C(=O)N4CCN(C5CCCCC5)CC4)cc3)c(=O)c2=O)CC1 | inconclusive [inhibitor, full curve, poor fit] |  |
| NC(=O)CC1NC(=O)c2cc([N+](=O)[O-])cc(I)c2OCCC(C(N)=O)NC(=O)[C@@H]2CCCN2C1=O (some centres undefined) | inconclusive [inhibitor, full curve, poor fit] |  |
| COC(=O)c1cnn(-c2ccc(C(=O)Nc3cc(OC)c(OC)c(OC)c3)cc2)c1N |  | inactive: -3.34% |
| O=C(NCCOc1ccc(F)cc1)C1CCC(=O)N(CCCN2CCCC2=O)C1 (centres undefined) | inconclusive [inhibitor, partial curve] |  |
| O=C(CSc1nnc(-c2ccncc2)n1Cc1ccco1)Nc1nccs1 |  | inactive: -5.41% |
